The RNAGym collection of RNA variant scans (doi:10.1073/pnas.2313332121)
Variants at the floor of the assay are shown more often than the library holds them.

B1: TPR 5TU (parent)
chain: GGAUCUUCUCGAUCUAACAAAAAAGACAAAUCUGCCACAAAGCUUGAGAGCAUCUUCGGAUGCAGAGGCGGCAGCCUUCGGUGGCGCGAUAGCGCCAACGUUCUCAACUAUGACACGCAAAACGCGUGCUCCGUUGAAUGGAGUUUAUCAUG

Variants of: B1
Assay: polymerase ribozyme fitness, log enrichment relative to wild type (log ratio); higher = more active; in vitro selection for triplet polymerase activity
Procedure, shortened: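 Fitness measures genotype enrichment against wild-type enrichment on a logarithmic scale, with inverse-variance-weighted averaging of replicates. The logarithm is base 2, and genotypes were kept only with ≥10 input reads and ≥1 read per output in Illumina sequencing. The sequenced libraries came from one triplicate in vitro selection round, including frozen incubation at −7 °C, of PCR-built, transcribed mutant libraries of each subunit of a heterodimeric triplet polymerase ribozyme.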

Variant	polymerase ribozyme fitness (log ratio)
A89C U148C	-3.51
A89G C95A C114U C125U	≤ -4.2
A89G C99G C116A	-1.92
A89G C103A A121G C125G U148A	≤ -4.2
A89G C125U C132U	-1.73
A89G G92U C96G C103A G136C G140A	≤ -4.2
A89G G92U U151C	≤ -4.2
A89U A91U C116U	≤ -4.2
A89U A97G U134A G141C	-3.84
A89U A150U	1.51
A89U G92A	≤ -4.2
A89U G92C G94U G141A	-3.94
U90A	-4.07
U90A A106C A121U	≤ -4.2
U90A C95U A121U U127A	≤ -4.2
U90A C99U C103G G140A	≤ -4.2
U90A C125G A147C U148C	-3.99
U90A G136U G140C	≤ -4.2
U90C	-2.87
U90C A91C G94A U101G G117A A121U G124U	≤ -4.2
U90C C93G A97U U144C	≤ -4.2

Variant	polymerase ribozyme fitness (log ratio)
U90C C95A G100C U134C	≤ -4.2
U90C C95A U102A C132A	≤ -4.2
U90C G92A C123A G126A A147C	≤ -4.2
U90C G92U C95U	≤ -4.2
U90G	≤ -4.2
U90G C95G	≤ -4.2
U90G G92A A106C C118U	≤ -4.2
U90G G94U A106U	≤ -4.2
U90G U101C G140A	≤ -4.2
A91C A106C	≤ -4.2
A91C A106U	≤ -4.2
A91C A115C	≤ -4.2
A91C C95A C132U	≤ -4.2
A91C C96A A120U A122C G143U	-4.07
A91C G112C U146A	≤ -4.2
A91G A97U G117C U135A U148A	≤ -4.2
A91G A98U	-3.95
A91G A106G	-1.93
A91G A115U G133C	≤ -4.2
A91G A120G	-2.98
A91G A137C G141U	≤ -4.2

Variant	polymerase ribozyme fitness (log ratio)
A91G C93U	-3.88
A91G C96G C99G C118G	≤ -4.2
A91G C108G	≤ -4.2
A91G C108U	-3.97
A91G C131A A137C G143C	≤ -4.2
A91G G92U	-2.31
A91G U130G	≤ -4.2
A91G U139G	-3.56
A91G U145A	-3.07
A91U A97G	-3.67
A91U A97G U104C A122G G126U	≤ -4.2
A91U A106U G117A G136U	≤ -4.2
A91U C95G C116A G143U A147C	≤ -4.2
A91U C99G	≤ -4.2
A91U C105G	≤ -4.2
A91U C108A C114A C129A U146A	≤ -4.2
A91U C118A A142C U144G	≤ -4.2
A91U C118G A120G C149U	≤ -4.2
A91U G100A	≤ -4.2
A91U G152U	≤ -4.2
A91U U145A	-4

Variant	polymerase ribozyme fitness (log ratio)
G92A A120G A121C U148C	-4.16
G92A C103A A107G C116A G140U	≤ -4.2
G92A C108G	≤ -4.2
G92A C118G	-3.69
G92A C129A A147G	≤ -4.2
G92A C149U	-3.4
G92A G117C	-2.82
G92A G136C	-3.83
G92A U101G C149U	-3.56
G92A U134A A142U A147G	≤ -4.2
G92C A98G A115U C149G	≤ -4.2
G92C A115U	-1.86
G92C C118G C149A	≤ -4.2
G92C G100A A121U C132U U144C	≤ -4.2
G92C G100C U139A	≤ -4.2
G92C U139A	-4.2
G92U A97C	-0.00996
G92U A106C	-0.0112
G92U A113U G133A	≤ -4.2
G92U A120G G140A	≤ -4.2
